In all, about 410,000 compounds went through this assay and about 5,000 (1.2%) were called active. Inconclusive results, whose numbers are uncertain, are shown with a selection of clear calls. Calls follow the shape of the dose curve; as a rule, active = well fitted inhibition curve with a large enough effect; inconclusive = small, poorly fitted or top-dose-only effect; inactive = no such curve, though single readings can be large or run the other way. Potencies beside an inconclusive call are fits to weak or partial responses and may not hold up.
Assay: qHTS for Inhibitors of TGF-b; also: nearly all actives have a fitted effect of over 65% in size
Settings: HepG2 CAGA-GFP TGF-b/SMAD3 reporter, GFP fluorescence, 18 h, TGF-beta stimulated, 500 pg/mL final; series mostly up to 46.1 µM
In short: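 Per well, imaged GFP fluorescence of HEPG2 CAGA-GFP cells gives the signal; cells get compound, then TGF-beta (500 pg/mL final), 18 h at 37 degrees C; %Activity versus -TGF-beta and +DMSO controls.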
For `CCc1nn2c(=O)cc(COc3ccc(/C=C4\C(=N)N5N=C(CC(C)C)SC5=NC4=O)cc3)nc2s1`, the Potency was “inactive”.
With `CN(c1ccccc1)S(=O)(=O)c1ccc(NC(=O)c2cccs2)cc1` the Potency was inconclusive: 35.5 µM [inhibitor, single point].
With `Cc1cc(NCc2ccccc2)c2ccccc2n1` the Potency was inconclusive: 35.5 µM [inhibitor, single point].
For `CCOc1ccc(S(=O)(=O)Nc2cccc(C(=O)NCC3(N4CCCCC4)CCCCC3)c2)cc1`, the Potency was inconclusive: 35.5 µM [inhibitor, single point].
With `CCOc1ccccc1CN1CCCC(C(=O)Nc2cccc(-n3cccn3)c2)C1` (stereo not drawn) the Potency was inconclusive: 35.5 µM [inhibitor, single point].
With `COc1cccc(CN2CCN(C3CCN(c4ccccc4C)CC3)CC2CCO)c1` (stereo not drawn) the Potency was inconclusive: 31.6 µM [inhibitor, single point].
With `CC1CCN(c2ccc3nnc(CCC(=O)N4CCN(c5ccccc5F)CC4)n3n2)CC1` the Potency was inconclusive: 10 µM [inhibitor, partial curve, poor fit].
In the case of `O=C(Cn1c(SCc2cccc(F)c2)nc2cccnc21)Nc1ccc(F)c(Cl)c1`, the Potency was inconclusive: 35.5 µM [inhibitor, single point].
For `COc1ccccc1NC(c1ccc(Cl)cc1)c1nnc(-c2cccc(F)c2)o1` (stereo not drawn), the Potency was “inactive”.
For `CC(=O)Nc1ccc(S(=O)(=O)N2CCN(c3cccc(C)c3C)CC2)cc1`, the Potency was inconclusive: 35.5 µM [inhibitor, single point].
For `COC(=O)[C@@H](NC(=O)NC(C)CCc1ccccc1)C(C)C` (stereo partly drawn), the Potency was inconclusive: 35.5 µM [inhibitor, single point].
In the case of `CC1(C(=O)NS(=O)(=O)c2ccc(Br)cc2)CCN1C(=O)Cc1cccs1` (stereo not drawn), the Potency was inconclusive: 5.62 µM [inhibitor, single point].
For `COc1ccc2oc(C(=O)OCC(=O)N(CC(C)C)c3c(N)n(Cc4ccccc4)c(=O)[nH]c3=O)c(C)c2c1`, the Potency was inconclusive: 28.2 µM [inhibitor, single point].
For `CCN(CC)c1ccc(S(=O)(=O)N2CCOCC2)cc1NC(=O)CN1C(=O)NC2(CCC(C)CC2)C1=O` (stereo not drawn), the Potency was inconclusive: 1.26 µM [inhibitor, full curve, poor fit].
In the case of `CCOC(=O)[C@H]1[C@H]2COc3ccc(C)cc3[C@@H]2N2C(=O)c3cc(Cl)ccc3NC(=O)[C@@]12C`, the Potency was inconclusive: 3.16 µM [inhibitor, full curve, poor fit].
In the case of `CC(=O)c1ccc(N2CCN(c3ccc(NC(=O)c4ccc(F)cc4)cc3C(=O)O)CC2)cc1`, the Potency was inconclusive: 35.5 µM [inhibitor, single point].
In the case of `CCc1ccc(CNC(=O)c2ccc(NC(=O)N3CC(C)Sc4ccccc43)cc2)cc1` (stereo not drawn), the Potency was inconclusive: 12.6 µM [inhibitor, single point].
In the case of `O=C(C1CC(=O)N(c2ccc3c(c2)OCCO3)C1)N1CCN(c2cccc(C(F)(F)F)c2)CC1` (stereo not drawn), the Potency was inconclusive: 31.6 µM [inhibitor, single point].
With `CC(C)C(N)c1csc(NC(=O)Nc2cccc(Cl)c2)n1` (stereo not drawn) the Potency was inconclusive: 35.5 µM [inhibitor, single point].
With `CCC(C)N1C(=O)S/C(=C/c2ccc(Sc3nc4ccccc4[nH]3)o2)C1=O` (stereo not drawn) the Potency was active: 11.2 µM.
With `CC(C)(C)c1ccc(C(=O)NCC(c2cccs2)S(=O)(=O)c2ccccc2)cc1` (stereo not drawn) the Potency was inconclusive: 12.6 µM [inhibitor, partial curve, poor fit].
For `Cc1ccc(/C=N/c2sc3c(c2C#N)CCCCC3)o1`, the Potency was “inactive”.
With `COc1ccc(N(CC(=O)NCCC2=CCCCC2)S(C)(=O)=O)cc1OC` the Potency was inconclusive: 0.562 µM [inhibitor, full curve].
With `COC(=O)c1ccc2c(=O)n(CCCCCC(=O)NCc3ccc(Cl)cc3)c(=O)[nH]c2c1` the Potency was inconclusive: 35.5 µM [inhibitor, single point].
With `COc1ccc(-c2nnn(Cc3ccccc3)n2)cc1` the Potency was “inactive”.
For `CCC(C)NC(=O)CSc1nc2n[nH]c(C)c2c(=N)n1-c1ccc(OC)cc1` (stereo not drawn), the Potency was inconclusive: 12.6 µM [inhibitor, single point].
With `Cc1ccc(-n2c(SCc3cccc(F)c3)nc3[nH]ncc3c2=O)cc1C` the Potency was inconclusive: 31.6 µM [inhibitor, single point].
In the case of `COc1ccc(C2CC(=O)c3cc(-c4nc(-c5ccc(Cl)cc5)c(C)s4)c(=O)[nH]c3C2)cc1` (stereo not drawn), the Potency was “inactive”.
In the case of `Cc1ccc2c(c1)-c1cc(C)nn1C(c1cc(Br)ccc1O)N2` (stereo not drawn), the Potency was inconclusive: 12.6 µM [inhibitor, single point].
In the case of `COc1cc(OC)c(OC)cc1/C=C/c1nc2cc3ccccc3cc2c(=O)n1-c1ccc(F)cc1F`, the Potency was inconclusive: 3.98 µM [inhibitor, partial curve, poor fit].
In the case of `COc1cc(CN(C)CCc2ccccn2)cc(OC)c1OC`, the Potency was inconclusive: 3.16 µM [inhibitor, partial curve, poor fit].
In the case of `CCc1nnc(SCc2cc(C)ccc2C)c2cc3sc(C)cc3n12`, the Potency was inconclusive: 35.5 µM [inhibitor, single point].
With `CCCc1cc(=O)n(-c2nc3ccccc3s2)[nH]1` the Potency was inconclusive: 25.1 µM [inhibitor, single point].
For `Cc1ccc(S(=O)(=O)/N=C2/C=C(C3C(=O)CC(C)(C)CC3=O)C(=O)c3ccccc32)cc1`, the Potency was inconclusive: 10 µM [inhibitor, partial curve, poor fit].
For `COc1ccc(NC(=O)C(C)n2nc(-c3ccc(C)c(C)c3)ccc2=O)cc1OC` (stereo not drawn), the Potency was inconclusive: 11.2 µM [inhibitor, single point].
In the case of `CC(C)(C)S(=O)(=O)N1C[C@@H]2C(=CC[C@H]3C(=O)N(c4ccccc4)C(=O)[C@@H]23)[C@@H]1CCO`, the Potency was “inactive”.
For `CN(C(=O)c1cccc(NC(=O)C2CCN(C(=O)OC(C)(C)C)CC2)c1)C1CCCCC1`, the Potency was inconclusive: 11.2 µM [inhibitor, partial curve, poor fit].
With `CCCCOC(=O)C1=C(C)Nc2ncnn2C1c1cccc(OC)c1` (stereo not drawn) the Potency was inconclusive: 20 µM [inhibitor, partial curve, poor fit].
Potency is read from the fitted curve at half-maximal effect; tags tell the direction and shape of the fitted curve.
